Test results taken from PubChem BioAssay AID1745845 (National Center for Advancing Translational Sciences (NCATS), 2022).
About 2,600 (0.72%) of roughly 360,000 compounds were called active. The shares of active, inactive and inconclusive entries below differ from those in the screen. The call rests on the fitted dose curve; in most records, active means well fitted inhibition curve with a large enough effect; inconclusive means small, poorly fitted or top-dose-only effect; inactive means no such curve, though single readings can be large or run the other way. Potencies of inconclusive entries are doubtful fits and often do not repeat.

Assay: Primary qHTS for Inhibitors of ATXN expression; further: nearly all actives have a fitted effect of over 55% in size
Details: HEK-293 ATXN2-luciferase reporter, luminescence, 24 h; activity change, negative = inhibition: at 57 µM (top of the series)
Procedure, shortened: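 qHTS (up to 57 uM final) was run with 24 h compound exposure of reporter cells at 37 °C. Each well was multiplexed: SteadyGlo luminescence measured ATXN2-luciferase expression after a fluorogenic Gly-Phe-AFC viability readout (25 uM final).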
On the % scale 0 is the no-effect control and ±100 the full control effect; potency means the concentration at half of the fitted maximal effect; tags describe the fitted curve by direction and shape.

SMILES | Potency | activity change, negative = inhibition
COc1ccc(CC(=O)Nc2ccc3nc(Nc4cccc(Cl)c4)cc(C)c3c2)cc1 | inconclusive: 14.1 µM [inhibitor, partial curve] | 
Cc1ccc(S(=O)(=O)c2cc3cc(Br)ccc3oc2=O)cc1 | inconclusive: 35.5 µM [inhibitor, single point] | 
O=C(N/N=C/c1sc(N2CCOCC2)nc1-c1ccccc1)c1ccccc1O | inconclusive: 39.8 µM [inhibitor, single point] | 
CC(C)N(Cc1cn[nH]c1-c1ccc(-c2ccccc2)cc1)Cc1nccn1C | inconclusive: 35.5 µM [inhibitor, single point] | 
CCOC(=O)c1nn(-c2ccc(F)cc2)c(-c2ccccc2)c1C(=O)c1ccccc1 | inconclusive: 22.4 µM [inhibitor, single point] | 
COc1cc(NS(=O)(=O)c2ccc3[nH]c4c(c3c2)CCCC4)cc(OC)c1OC | inconclusive: 25.1 µM [inhibitor, single point] | 
C=Cc1ccc(Cn2c(C(=O)O)c(CNCCc3ccccc3)c3ccc(C)cc32)cc1 | inconclusive: 39.8 µM [inhibitor, single point] | 
O=C1/C(=C\c2ccc(Cl)c(Cl)c2)CN(C(=O)CCN2CCOCC2)C/C1=C/c1ccc(Cl)c(Cl)c1 | active: 6.7 µM | 
O=C(CCCSc1nc2ccccc2s1)NC1=NCCS1 | inconclusive: 31.6 µM [inhibitor, single point] | 
Cc1cccc(C(=O)N2CCCC(CCC(=O)N3CCN(c4ccccn4)CC3)C2)c1C (stereo unspecified) | inconclusive: 14.1 µM [inhibitor, partial curve, poor fit] | 
COc1ccc(OC)c(NC(=O)c2c(NCc3ccc(OC)c(OC)c3)sc3c2CCC(C)C3)c1 (stereo unspecified) | inconclusive: 39.8 µM [inhibitor, single point] | 
CC[C@]1(c2ccccc2OC)ON(c2ccccc2C(F)(F)F)C1=O | inconclusive: 28.2 µM [inhibitor, single point] | 
Cn1c(/C=N/c2nc3ccccc3[nH]2)nc2ccccc21 | inactive | 
CCCCn1c(N)c(N(CCOC)C(=O)c2ccc(S(=O)(=O)N(CC)c3ccccc3)cc2)c(=O)[nH]c1=O | inactive | 
COc1ccc(-c2cc(C(=O)Nc3ccccc3N3CCOCC3)c3ccccc3n2)cc1OC | inconclusive: 15.8 µM [inhibitor, partial curve, poor fit] | 
Oc1ccc(C[C@H]2CN([C@@H](Cc3ccc(O)cc3)CN3CCC[C@@H]3CN3C(=S)NC[C@@H]3Cc3ccccc3)C(=S)N2CCc2ccccc2)cc1 | inconclusive: 12.6 µM [inhibitor, partial curve, poor fit] | 
COc1ccc(C2=N[C@H](c3ccc(Cl)cc3)[C@H](c3ccc(Cl)cc3)N2C(=O)N2CCNC(=O)C2)c(OC(C)C)c1 | inconclusive: 10.9 µM [inhibitor, partial curve] | 
CCN1C(=O)[C@H]2[C@@H](c3ccc(-c4ccc(Cl)c(Cl)c4)cc3)N[C@@](C)(C(=O)OC)[C@H]2C1=O | inconclusive: 39.8 µM [inhibitor, single point] | 
COc1ccc2c(c1)C[C@]1(C)c3ccccc3C(=O)N(Cc3ccccc3)[C@H]21 | inconclusive: 28.2 µM [inhibitor, single point] | 
Cc1ccc(S(=O)(=O)N2CCCc3cc(NS(=O)(=O)c4ccc(F)cc4)ccc32)cc1 | inconclusive: 39.8 µM [inhibitor, single point] | 
Cc1ccc(COC(=O)c2cc(S(=O)(=O)N3CCOCC3)ccc2C)cc1 | inconclusive: 20 µM [inhibitor, partial curve, poor fit] | 

SMILES | Potency | activity change, negative = inhibition
Cc1cc(C)n2[nH]c(=O)c(N=Nc3cccc(C(F)(F)F)c3)c2n1 | inconclusive: 14.1 µM [inhibitor, partial curve, poor fit] | 
COc1ccc(C(NC(C)=O)c2ccc3cccnc3c2O)c(OC)c1 (stereo unspecified) | active: 1.78 µM | 
CCC(C)C(=O)N1c2ccccc2C(=C2SC(C(=O)OC)=C(C(=O)OC)S2)C(=S)C1(C)C (stereo unspecified) | inconclusive: 22.4 µM [inhibitor, partial curve, poor fit] | 
CCc1nnc(NC(=O)CSc2nnc(-c3ccncc3)n2C)s1 | inconclusive: 22.4 µM [inhibitor, partial curve, poor fit] | 
CC(=O)CC1c2cc(F)ccc2C=C(c2ccsc2)N1c1ccc(C#Cc2cncn2C)cc1 (stereo unspecified) | inconclusive: 39.8 µM [inhibitor, single point] | 
COc1ccc(C(=O)NCCc2csc(-c3ccc(Cl)cc3)n2)cc1 | inconclusive: 22.4 µM [inhibitor, partial curve, poor fit] | 
COc1ccc2[nH]c(C)c(CCNC(=S)Nc3cc(C)cc(C)c3)c2c1 | inconclusive: 39.8 µM [inhibitor, single point] | 
Cc1ccc(/C=C/C(=O)c2ccccc(=O)c2O)c(C)c1 | inconclusive: 37.7 µM [inhibitor, single point] | 
COc1ccc(-c2nnn(CC(=O)N(Cc3ccc(F)cc3)C(C(=O)NC3CCCC3)c3ccc(F)cc3)n2)cc1 (stereo unspecified) | inconclusive: 39.8 µM [inhibitor, single point] | 
COc1ccc(F)cc1-c1cc(NC=O)c2ncc(-c3cc(OC)c(OC)c(OC)c3)n2c1 | inconclusive: 25.1 µM [inhibitor, partial curve] | 
COc1ccc(-c2ccc(C)cc2)cc1[C@H]1[C@@H]2C=CCC[C@@]2(C)C(=O)N1Cc1ccccc1 | inconclusive: 25.1 µM [inhibitor, single point] | 
COc1cccc(/C=N/NC(=O)c2ccncc2)c1OC(=O)c1ccc(Br)cc1 | inconclusive: 5.62 µM [inhibitor, full curve] | 
Cc1cc(C(=O)NC(=S)Nc2ccccc2N2CCCC2)ccc1[N+](=O)[O-] | inactive | 
CN(C(=O)c1cccc(NC(=O)Cc2cccc([N+](=O)[O-])c2)c1)C1CCC1 | inconclusive: 39.8 µM [inhibitor, partial curve, poor fit] | 
NC(=O)c1cccc(-c2ccnc3c2CC(C(=O)Nc2cccc(C(F)(F)F)c2)O3)c1 (stereo unspecified) | inconclusive: 15.8 µM [inhibitor, partial curve] | 
CNc1nc(-c2ccccc2)[n+](-c2ccc(C)cc2)s1 | inactive | 
Cc1ccc2ccc3cccnc3c2n1 | inconclusive: 1.58 µM [inhibitor, partial curve, poor fit] | 
Cc1ccc(N2C=Nc3ccc(C)c4nc(C)cc2c34)cc1 | inactive | 
O=C(C1CCCN(S(=O)(=O)c2ccccc2[N+](=O)[O-])C1)N1CCN(c2ccccc2)CC1 (stereo unspecified) | inactive | 
O=C(COc1ccc([N+](=O)[O-])cc1)Nc1nc(-c2ccccn2)cs1 | inconclusive: 4.47 µM [inhibitor, partial curve, poor fit] | 
O=C(COC(=O)C1(c2ccc(F)cc2)CCCC1)NCc1ccc2c(c1)OCO2 | inconclusive: 25.1 µM [inhibitor, single point] | 

SMILES | Potency | activity change, negative = inhibition
Cc1cccc(Cn2ccc(NC(=O)c3ccc4c(c3)OCO4)n2)c1 | inactive | 
Cc1ccc(C(CCNC(C)c2cccs2)c2ccco2)cc1 (stereo unspecified) | inconclusive: 28.2 µM [inhibitor, partial curve] | 
CCCCCc1ccc(-c2ccc(C(=O)O)cc2)nc1 | inconclusive: 11.2 µM [inhibitor, single point] | 
Cc1cccnc1C(NC(=O)C1CCN(Cc2ccc(Cl)c(Cl)c2)CC1)c1ccc(Cl)cc1 (stereo unspecified) | inconclusive: 39.8 µM [inhibitor, single point] | 
CCCCc1ccc(-n2nc3ccc(NC(=O)c4cc5ccccc5o4)cc3n2)cc1 | inconclusive: 35.5 µM [inhibitor, single point] | 
CC(C)(C)c1ccc(OCCCNC2CCCC2)cc1 | inconclusive: 28.2 µM [inhibitor, partial curve] | 
Cc1occc1C(=O)N/N=C/c1c(O)ccc2ccccc12 |  | inconclusive: -55.3% [inhibitor]
Cc1ccc(CS/C(Nc2ccccc2C)=C(\C#N)C(=O)NCc2ccco2)c(C)c1 | inconclusive: 11.2 µM [inhibitor, partial curve, poor fit] | 
CCC1(C)NC(=O)N(CC(=O)c2cc(C)n(C3CC3)c2C)C1=O (stereo unspecified) | inactive | 
COc1ccc(C(=O)NCC(=O)Nc2ccc(-c3ccccc3)cc2)cc1 | inconclusive: 20 µM [inhibitor, partial curve, poor fit] | 
CCOc1ccc2nc(NS(=O)(=O)c3ccc(NC(C)=O)cc3)sc2c1 | inactive | 
O=C(Cn1cnc2nc3c(cc2c1=O)CCCC3)Nc1ccc(F)cc1Cl | inactive | 
c1ccc(-c2nc3ccccn3c2NC2CCCC2)nc1 | inconclusive: 28.2 µM [inhibitor, single point] | 
CCOC(=O)C1CCN(C(=O)CN(c2ccc3c(c2)OCCO3)S(C)(=O)=O)CC1 | inactive | 
CCOC(=O)c1sc2nc(CSc3ccccc3)nc(NCCN(C)C)c2c1C | inconclusive: 22.4 µM [inhibitor, single point] | 
Nc1ncn(C(=S)Nc2ccccc2)n1 | inconclusive: 39.8 µM [inhibitor, single point] | 
Cc1ccccc1Cn1nc(C)c(NC(=O)c2noc3c2CCc2ccccc2-3)c1C | inconclusive: 31.6 µM [inhibitor, partial curve, poor fit] | 
Cc1ccc(NN2C(=O)C=C(c3ccccc3)C2=O)cc1 | inconclusive: 39.8 µM [inhibitor, single point] | 
Cc1ccc2c(c1)COc1c3ccc(C(=O)NCC4CC4)cc3nn1-2 | inconclusive: 39.8 µM [inhibitor, single point] | 
